Reference: patent US10167259B2, “Allosteric inhibitors of proteasome and methods of use thereof” (THE BOARD OF REGENTS OF THE UNIVERSITY OF TEXAS SYSTEM, priority 2013, dated 2019)

System: core proteasome activated by Rpt2 and Rpt5 tail peptides
Test: Blocking activation of core proteasome chymotrypsin-like activity by Rpt2 and Rpt5 tail peptides
Assay type: biochemical
Conditions: FIG. 1F
Source text: The grooves are utilized by Rpt2, Rpt3 and Rpt5 subunits that anchor the regulatory particle to the core particle (Lander, et al., 2009). The anchoring C-terminal tails of Rpt2 and Rpt5 subunits are responsible for core particle gate opening and activation (Lander, et al., 2009). Activation of the core by both Rpt2 and Rpt5 tails is affected by B1 (FIG. 2C). The groove accommodating the C-terminal tail of Rpt2 subunit may be a primary docking place for B1, or B1 may allosterically affect binding of Rpt2 C-terminal tail with an exceptionally high efficiency (FIG. 2D). In vitro reconstruction of the 26S proteasome assembly from the core particle (20S) and regulatory particle (19S) components is attenuated by the treatment with B1 (FIG. 2E).

- Prevention of activation of the core proteasome by Rpt5 tail peptide, compared with B1: at least as efficient as the B1 compound
Structure (SMILES): COc1cc(CCCCCOC(=O)C2CCCCN2C(=O)C(=O)C2CCCCC2)cc(OC)c1OC (stereo not shown) [B5]
